Here are results for 88 molecules from PubChem BioAssay AID360 (National Center for Advancing Translational Sciences (NCATS), 2006).

Out of some 48,000 compounds screened, about 550 (1.1%) were called active. Not shown: some 4% with an inconclusive outcome. Cut-off read from the data, not from the text of the source: active = potency below about 15 µM; inconclusive = mostly about 16 µM to 33 µM; inactive = weaker than that. The list shows a part of the results. A value given as a limit tells only on which side of the number the result lay.
Potency is the fitted concentration of half-maximal effect.

The target of this assay is Lysosomal acid glucosylceramidase (Homo sapiens) (UniProt P04062). Put plainly: Glucocerebrosidase.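 Note: the screen sought inhibitors.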 As to conditions: purified enzyme, resorufin glucoside fluorescence (screen aimed at inhibitors), 20 min; series mostly up to 77 µM. A digest of the protocol: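 Compounds titrated against 0.2 nM normal enzyme, 30 uM resorufin beta-D-glucopyranoside substrate, citrate/phosphate buffer with taurocholate and tween-20, pH 5.9. Reaction ran 20 min at room temperature; fluorescence (Ex 548/Em 600) gave AC50.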
Chain of UniProt P04062 (P04062 whole entry, looked up): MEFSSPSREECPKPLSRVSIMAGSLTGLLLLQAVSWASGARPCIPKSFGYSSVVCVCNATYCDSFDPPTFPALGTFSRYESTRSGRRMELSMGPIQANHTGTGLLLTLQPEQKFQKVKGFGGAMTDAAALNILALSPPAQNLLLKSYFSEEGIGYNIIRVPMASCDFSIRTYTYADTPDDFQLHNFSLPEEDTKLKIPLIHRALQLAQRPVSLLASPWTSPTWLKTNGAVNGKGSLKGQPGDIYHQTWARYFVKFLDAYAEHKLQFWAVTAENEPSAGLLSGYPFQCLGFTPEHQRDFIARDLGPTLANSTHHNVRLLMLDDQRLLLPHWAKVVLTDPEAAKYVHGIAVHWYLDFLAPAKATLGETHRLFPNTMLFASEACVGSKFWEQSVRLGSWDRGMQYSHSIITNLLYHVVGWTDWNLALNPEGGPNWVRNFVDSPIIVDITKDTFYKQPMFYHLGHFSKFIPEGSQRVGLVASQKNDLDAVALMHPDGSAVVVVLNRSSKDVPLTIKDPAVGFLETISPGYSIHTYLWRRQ
As for `COc1ccc(NC(C)=O)cc1NC(=O)CN1CCN(S(=O)(=O)c2ccc(C(C)C)cc2)CC1`, the Potency is inactive: > 76.9 µM.

Regarding `CC(C(=O)NCc1ccc2c(c1)OCO2)N1c2cccc3cccc(c23)S1(=O)=O` (stereo not drawn), the Potency is inactive: > 76.9 µM.

Take `CC(=O)Nc1ccc(S(=O)(=O)N2CCCN(S(=O)(=O)c3ccc(NC(C)=O)cc3)CC2)cc1`: the Potency is inactive: > 76.9 µM.

`O=C(O)c1cccnc1SCC(=O)N1CCCCCC1`: the Potency is inactive: > 76.9 µM.

On to `CCOC(=O)C(C)Sc1nc2c(c(=O)[nH]c(=O)n2C)n1C/C=C(/C)Cl` (stereo not drawn), for which the Potency is inactive: > 76.9 µM.

Turning to `CCCc1cc(=O)[nH]c(SCC(=O)c2cc(C)n(CCOC)c2C)n1`, the Potency is inactive: > 76.9 µM.

`Cc1cc(C(=O)COc2cccc(-n3cnnn3)c2)c(C)n1-c1ccccc1`: the Potency is inactive: > 76.9 µM.

For `CC(=O)NC1(c2ccccc2)CCN(c2nc(C)cc(C)n2)CC1`, the Potency was inactive: > 76.9 µM.

In the case of `Cc1ccc(S(=O)(=O)N(C)CC(=O)Nc2cccc(C)n2)cc1`, the Potency is inactive: > 76.9 µM.

For the molecule `CCOC(=O)C1=C(c2ccccc2)Nc2ncnn2C1c1cccc(OC)c1OC` (stereo not drawn), the Potency was inactive: > 76.9 µM.

For the molecule `Cc1cc(C(=O)OCC(=O)Nc2ccc(F)cc2)c(C)o1`, the Potency is inactive: > 76.9 µM.

Take `Fc1cccc(-c2cc3nc4c(c(N5CCN(c6cnccn6)CC5)n3n2)CCCC4)c1`: the Potency was inactive: > 76.9 µM.

In the case of `COc1cccc2sc(Nc3nc(C)c(C(C)=O)s3)nc12`, the Potency is inactive: > 76.9 µM.

Regarding `CC(O)c1nc2ccccc2n1C/C=C/c1ccccc1` (stereo not drawn), the Potency is inactive: > 76.9 µM.

`COc1ccc(-c2noc(COc3ccc4ccccc4c3Br)n2)cc1OC`: the Potency was inactive: > 76.9 µM.

Take `Cc1ccc2c(c1)N(CC(=O)OC(CC(C)C)C(=O)NC1CCCC1)C(=O)CO2` (stereo not drawn): the Potency was inactive: > 76.9 µM.

Consider `Cn1c(N)c(C(=O)COC(=O)Cc2ccsc2)c(=O)n(C)c1=O`, for which the Potency was inactive: > 76.9 µM.

As for `C=C(C)CN(CC)C(=O)CSc1nc2ncc(Cl)cc2[nH]1`, the Potency is inactive: > 76.9 µM.

On to `CCc1ccc(C2C(C(C)=O)=C(C(=O)OC)Nc3nnnn32)cc1` (stereo not drawn), for which the Potency entry was “inactive”.

Regarding `COc1cc(C(=S)N2CCC(C(N)=O)CC2)ccc1O`, the Potency is inactive: > 76.9 µM.

Consider `Cc1ccc(Nc2nc(N)nc(CSc3nnc(-c4ccncc4)o3)n2)cc1`, for which the Potency is inactive: > 76.9 µM.

Regarding `Clc1cccc2sc(N3CCN(c4ccccc4)CC3)nc12`, the Potency is inactive: > 76.9 µM.

As for `CN(Cc1nc2ccccc2n1C)C(=O)c1cccs1`, the Potency is inactive: > 76.9 µM.

Consider `CC1CCCCN1C(=O)CSc1nc2ccccc2n1CC(=O)N1CCc2ccccc21` (stereo not drawn), for which the Potency was inactive: > 76.9 µM.

Consider `CCCC(=O)Nc1cccn(Cc2ccccc2Br)c1=O`, for which the Potency was inactive: > 76.9 µM.

`O=C(Nc1ccc(S(=O)(=O)N2CCC(C(=O)NC3CCCCC3)CC2)cc1)c1ccco1`: the Potency is inactive: > 76.9 µM.

For the molecule `CCOC(=O)C(Cc1cc(C(C)=O)ccc1OCC)C(=O)OCC`, the Potency is inactive: > 76.9 µM.

For the molecule `COc1ccc(-c2noc(CCC(=O)N3CCN(c4cccc(C(F)(F)F)c4)CC3)n2)cc1`, the Potency was inactive: > 76.9 µM.

With `CCn1c(SC)nnc1-c1sc2cc(Cl)ccc2c1Cl`, the Potency is inactive: > 76.9 µM.

For the molecule `Cn1c(=O)n(CC(=O)NCc2cccnc2)c2ccccc21`, the Potency was inactive: > 76.9 µM.

In the case of `COc1ccccc1NC(=O)CN(C)S(=O)(=O)c1ccc(F)cc1`, the Potency is inactive: > 76.9 µM.

On to `O=C(OCc1nc2ccccc2s1)C1CCN(C2=NS(=O)(=O)c3ccccc32)CC1`, for which the Potency is inactive: > 76.9 µM.

As to `O=C(c1sc2ccccc2c1Cl)N(Cc1ccco1)C1CCS(=O)(=O)C1` (stereo not drawn), the Potency was inactive: > 76.9 µM.

Consider `CC1(C)c2ccccc2N2CC(=O)N(CC(N)=O)C21C` (stereo not drawn), for which the Potency is inactive: > 76.9 µM.

Regarding `Cc1cc(NC(=O)c2cc3ccccc3o2)cc(C)c1OCC(=O)N1CCOCC1`, the Potency is inactive: > 76.9 µM.

For `CCC(Sc1nc(N)cc(=O)[nH]1)C(=O)NC(C(=O)OC)c1ccccc1` (stereo not drawn), the Potency is inactive: > 76.9 µM.

As for `c1ccc(OCc2nn3c(-c4n[nH]c5c4CCC5)nnc3s2)cc1`, the Potency is inactive: > 76.9 µM.

For `O=C(NC(Cc1ccccc1)C(=O)O)c1ccc(S(=O)(=O)N2CCOCC2)cc1` (stereo not drawn), the Potency was inactive: > 76.9 µM.

Consider `CCCN(CCC)C(=O)CCS(=O)(=O)c1cccc2nsnc12`, for which the Potency is inactive: > 76.9 µM.

For `Clc1ccc(NC2=NCCCCC2)cc1`, the Potency was inactive: > 76.9 µM.

As for `COc1ccc(CC(=O)Nc2ccc(OC)c(NC(=O)c3ccco3)c2)cc1`, the Potency is inactive: > 76.9 µM.

For the molecule `CC(=O)N1c2c(cc(Br)cc2S(=O)(=O)NCC2COc3ccccc3O2)CC1C` (stereo not drawn), the Potency is inactive: > 76.9 µM.

With `Cc1cccc(OCc2nnc(SCC(=O)Nc3cc(C)on3)n2C)c1`, the Potency was inactive: > 76.9 µM.

Turning to `Cc1cc(C(=O)Nc2c(C)nn(Cc3ccccc3Cl)c2C)no1`, the Potency is inactive: > 76.9 µM.

Take `CC1CCN(CCCn2c(=S)[nH]c3ccc(N4CCOCC4)cc3c2=O)CC1`: the Potency is inactive: > 76.9 µM.

With `CCn1c(=S)sc2c(=O)n(-c3ccccc3)c(SCC(=O)NCc3ccco3)nc21`, the Potency entry is “inactive”.

On to `CCOC(=O)N1CCN(C(=O)c2cc(-n3cnnc3)ccc2Cl)CC1`, for which the Potency was inactive: > 76.9 µM.

Consider `Cc1cc(Nc2ccccc2)n(CCC#N)n1`, for which the Potency was inactive: > 76.9 µM.

`Cc1ccc(NC(=O)c2cccs2)cc1NC(=O)c1ccco1`: the Potency is inactive: > 76.9 µM.

In the case of `CCOC(=O)C1CCN(C(=O)c2n[nH]c(=O)c3ccccc23)CC1`, the Potency is inactive: > 76.9 µM.

For `O=C(NCc1ccc(F)cc1)C1CCCN(C(=O)Nc2ccccc2)C1` (stereo not drawn), the Potency was inactive: > 76.9 µM.

As to `O=C(NCc1ccco1)c1c[nH]c2ccc(S(=O)(=O)N3CCOCC3)cc2c1=O`, the Potency was inactive: > 76.9 µM.

On to `Cc1ccccc1NC(=O)c1c(O)c2cccc3c2n(c1=O)CC3`, for which the Potency is inactive: > 76.9 µM.

Consider `COc1ccccc1N(C(C)=O)C1SC(=O)N(c2ccccc2)C1=O` (stereo not drawn), for which the Potency is inactive: > 76.9 µM.

As to `CCNS(=O)(=O)c1cc(S(C)(=O)=O)ccc1Cl`, the Potency was inactive: > 76.9 µM.

Regarding `CCCC1C2CN(C(C)=O)CC=C2C(C#N)=C(N)C1(C#N)C#N` (stereo not drawn), the Potency was inactive: > 76.9 µM.

For the molecule `COc1ccc(C)cc1S(=O)(=O)N(C)CC(N)=O`, the Potency was inactive: > 76.9 µM.

In the case of `O=C(Cc1ccccc1)Nc1ccc(NC(=O)c2ccco2)nc1`, the Potency was inactive: > 76.9 µM.

Turning to `CC1(C)Cc2c(c(-c3ccccc3)[nH]c(=O)c2C#N)CO1`, the Potency was inactive: > 76.9 µM.

In the case of `COc1cc(C(=O)OC2CCN(C)CC2)cc(OC)c1OC`, the Potency was inactive: > 76.9 µM.

`COc1cc(OC)cc(-c2cc3nc(C)c(CCC(=O)NC(C)CCc4ccco4)c(C)n3n2)c1` (stereo not drawn): the Potency was inactive: > 76.9 µM.

With `N=c1c2c(n(Cc3ccc(Cl)cc3)c3c1CCC3)CCC2`, the Potency is inactive: > 76.9 µM.

Turning to `CCCn1c(SCC(=O)Nc2nnc(CC)s2)nc2c1c(=O)n(C)c(=O)n2C`, the Potency is inactive: > 76.9 µM.

As for `CC1Cc2ccccc2N1C(=O)COC(=O)c1ccc(S(=O)(=O)N(C)C)cc1` (stereo not drawn), the Potency was inactive: > 76.9 µM.

Regarding `NC(=O)c1c(NC(=O)CSc2nnc(-c3ccccc3)n2CC2CCCO2)sc2c1CCC2` (stereo not drawn), the Potency is inactive: > 76.9 µM.

With `CN1c2ccccc2N(C)C1c1ccc2c(c1)OCO2`, the Potency was inactive: > 76.9 µM.

Regarding `O=C(NCc1ccncc1)C1CCCN(S(=O)(=O)Cc2ccccc2)C1` (stereo not drawn), the Potency was inactive: > 76.9 µM.

For `O=c1[nH]c(Cc2cccs2)nc2ccccc12`, the Potency is inactive: > 76.9 µM.

Regarding `O=c1oc2cc(O)ccc2cc1-c1ccc(F)cc1`, the Potency is inactive: > 76.9 µM.

Consider `O=C(O)CCC(=O)NCCn1c(-c2ccccc2)csc1=Nc1ccccc1`, for which the Potency is inactive: > 76.9 µM.

In the case of `Cc1ccc2cc(C#N)c(NCCNC(=O)C3CC3)nc2c1C`, the Potency was inactive: > 76.9 µM.

For the molecule `COc1ccc2[nH]c3c(=O)n(CCCCC(=O)N4CCC(C(N)=O)CC4)c(=S)[nH]c3c2c1`, the Potency is inactive: > 76.9 µM.

Turning to `COc1ccc(S(=O)(=O)N2CCc3ccccc32)cc1C(=O)OCc1nnc(-c2ccccc2)o1`, the Potency is inactive: > 76.9 µM.

On to `Cc1cc(C(=O)CN2C(=O)NC3(CCCc4ccccc43)C2=O)c(C)n1Cc1cccs1` (stereo not drawn), for which the Potency was inactive: > 76.9 µM.

Consider `COc1cccc(-n2ccnc2SCC(=O)NCc2ccccc2)c1`, for which the Potency was inactive: > 76.9 µM.

As for `O=C(CSc1ncnc2nc[nH]c12)N1CCN(c2ccc(Cl)cc2)CC1`, the Potency is inactive: > 76.9 µM.

`O=C(c1cccn2c(=O)c3ccc(Cl)cc3nc12)N1CCN(Cc2ccc3c(c2)OCO3)CC1`: the Potency was inactive: > 76.9 µM.

In the case of `COCCN(C(=O)C(F)(F)F)C(C(=O)NC1CCCCC1)c1ccco1` (stereo not drawn), the Potency was inactive: > 76.9 µM.

In the case of `CS(=O)(=O)c1ccc(Cl)c(NC(=O)C2CC(=O)N(Cc3ccccc3)C2)c1` (stereo not drawn), the Potency was inactive: > 76.9 µM.

On to `CCn1c(CNc2cccc(Cl)c2)nnc1SCc1ccccc1`, for which the Potency result was “inactive”.

Consider `CC1CC(C)CN(CCCNC(=O)c2ccc3c(c2)NC(=O)C(N2CCCCC2)S3)C1` (stereo not drawn), for which the Potency is inactive: > 76.9 µM.

`O=C(CCn1c(=O)[nH]c2ccsc2c1=O)N1CCc2ccccc2C1`: the Potency is inactive: > 76.9 µM.

As for `COc1ccccc1CN1CC(C(=O)NCC2CCCO2)CC1=O` (stereo not drawn), the Potency is inactive: > 76.9 µM.

`O=S(=O)(c1ccccc1)n1nc(-c2ccccc2)nc1NCc1ccco1`: the Potency is inactive: > 76.9 µM.

In the case of `COc1ccc(/C(O)=C2/C(=O)C(=O)N(CCCC(=O)O)C2c2ccc(OC)c(OC)c2)cc1` (stereo not drawn), the Potency was inactive: > 76.9 µM.

Turning to `CN1CCN(/C=C2\SC(=S)NC2=O)CC1`, the Potency is inactive: > 76.9 µM.

Consider `CCCCCC(=O)Nc1ccc(Cl)cn1`, for which the Potency was inactive: > 76.9 µM.

Take `CCc1c(C)c2ccc(OCC(=O)OC(C)C)c(C)c2oc1=O`: the Potency was inactive: > 76.9 µM.
